Data on 31 molecules can be found in publication PMC9911399, “Two distinct binding modes provide the RNA-binding protein RbFox with extraordinary sequence specificity”.

T1: RBFOX1 RRM (Homo sapiens, UniProt Q9NWB1 109-208)
T1 sequence: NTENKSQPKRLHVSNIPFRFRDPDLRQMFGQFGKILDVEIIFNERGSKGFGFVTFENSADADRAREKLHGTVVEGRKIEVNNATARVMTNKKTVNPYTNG

B1: GCAGCCA (DNA:RNA)
RNA: GGGAGACCGGAAUUCAGAUUGUCCGCAGCCAUUAAAUCCCGUCGUAGCCACCA
DNA 1: CAATCTGAATTCCGGTCTCCC
DNA 2: TGGTGGCTACGACGGGATT
B2: AAGACUC (DNA:RNA)
RNA: B1 RNA with G25A, C26A, A27G, G28A, C30U, A31C
DNA 1: CAATCTGAATTCCGGTCTCCC
DNA 2: TGGTGGCTACGACGGGATT
B3: ACUGGCC (DNA:RNA)
RNA: B1 RNA with G25A, A27U, C29G, A31C
DNA 1: CAATCTGAATTCCGGTCTCCC
DNA 2: TGGTGGCTACGACGGGATT
B4: GGUUUAU (DNA:RNA)
RNA: B1 RNA with C26G, A27U, G28U, C29U, C30A, A31U
DNA 1: CAATCTGAATTCCGGTCTCCC
DNA 2: TGGTGGCTACGACGGGATT
B5: ACAGAGA (DNA:RNA)
RNA: B1 RNA with G25A, C29A, C30G
DNA 1: CAATCTGAATTCCGGTCTCCC
DNA 2: TGGTGGCTACGACGGGATT
B6: AAACAAC (DNA:RNA)
RNA: B1 RNA with G25A, C26A, G28C, C29A, C30A, A31C
DNA 1: CAATCTGAATTCCGGTCTCCC
DNA 2: TGGTGGCTACGACGGGATT
B7: GCUGUUU (DNA:RNA)
RNA: B1 RNA with A27U, C29U, C30U, A31U
DNA 1: CAATCTGAATTCCGGTCTCCC
DNA 2: TGGTGGCTACGACGGGATT
B8: CGAAGGU (DNA:RNA)
RNA: B1 RNA with G25C, C26G, G28A, C29G, C30G, A31U
DNA 1: CAATCTGAATTCCGGTCTCCC
DNA 2: TGGTGGCTACGACGGGATT
B9: GGUGGUU (DNA:RNA)
RNA: B1 RNA with C26G, A27U, C29G, C30U, A31U
DNA 1: CAATCTGAATTCCGGTCTCCC
DNA 2: TGGTGGCTACGACGGGATT
B10: UUCAAUC (DNA:RNA)
RNA: GGGAGACCGGAAUUCAGAUUGUCCUUCAAUCUUAAAUCCCGUCGUAGCCACCA
DNA 1: CAATCTGAATTCCGGTCTCCC
DNA 2: TGGTGGCTACGACGGGATT
B11: AAACAAA (DNA:RNA)
RNA: B1 RNA with G25A, C26A, G28C, C29A, C30A
DNA 1: CAATCTGAATTCCGGTCTCCC
DNA 2: TGGTGGCTACGACGGGATT
B12: CAUAGUU (DNA:RNA)
RNA: B10 RNA with U25C, U26A, C27U, A29G, C31U
DNA 1: CAATCTGAATTCCGGTCTCCC
DNA 2: TGGTGGCTACGACGGGATT
B13: CUCACAC (DNA:RNA)
RNA: B10 RNA with U25C, A29C, U30A
DNA 1: CAATCTGAATTCCGGTCTCCC
DNA 2: TGGTGGCTACGACGGGATT
B14: GAGACGU (DNA:RNA)
RNA: B1 RNA with C26A, A27G, G28A, C30G, A31U
DNA 1: CAATCTGAATTCCGGTCTCCC
DNA 2: TGGTGGCTACGACGGGATT
B15: AUGUCCC (DNA:RNA)
RNA: B1 RNA with G25A, C26U, A27G, G28U, A31C
DNA 1: CAATCTGAATTCCGGTCTCCC
DNA 2: TGGTGGCTACGACGGGATT
B16: UCGGCUU (DNA:RNA)
RNA: B1 RNA with G25U, A27G, C30U, A31U
DNA 1: CAATCTGAATTCCGGTCTCCC
DNA 2: TGGTGGCTACGACGGGATT
B17: UCUACUC (DNA:RNA)
RNA: B10 RNA with U26C, C27U, A29C
DNA 1: CAATCTGAATTCCGGTCTCCC
DNA 2: TGGTGGCTACGACGGGATT
B18: GUUCAAU (DNA:RNA)
RNA: B10 RNA with U25G, C27U, A28C, U30A, C31U
DNA 1: CAATCTGAATTCCGGTCTCCC
DNA 2: TGGTGGCTACGACGGGATT
B19: UUGACUG (DNA:RNA)
RNA: B10 RNA with C27G, A29C, C31G
DNA 1: CAATCTGAATTCCGGTCTCCC
DNA 2: TGGTGGCTACGACGGGATT
B20: UUUACUG (DNA:RNA)
RNA: B10 RNA with C27U, A29C, C31G
DNA 1: CAATCTGAATTCCGGTCTCCC
DNA 2: TGGTGGCTACGACGGGATT
B21: AUAUCAA (DNA:RNA)
RNA: B1 RNA with G25A, C26U, G28U, C30A
DNA 1: CAATCTGAATTCCGGTCTCCC
DNA 2: TGGTGGCTACGACGGGATT
B22: CAGUGUC (DNA:RNA)
RNA: B10 RNA with U25C, U26A, C27G, A28U, A29G
DNA 1: CAATCTGAATTCCGGTCTCCC
DNA 2: TGGTGGCTACGACGGGATT
B23: AGCUUGU (DNA:RNA)
RNA: B10 RNA with U25A, U26G, A28U, A29U, U30G, C31U
DNA 1: CAATCTGAATTCCGGTCTCCC
DNA 2: TGGTGGCTACGACGGGATT
B24: UCUUCUU (DNA:RNA)
RNA: B1 RNA with G25U, A27U, G28U, C30U, A31U
DNA 1: CAATCTGAATTCCGGTCTCCC
DNA 2: TGGTGGCTACGACGGGATT
B25: GGCUGGU (DNA:RNA)
RNA: B1 RNA with C26G, A27C, G28U, C29G, C30G, A31U
DNA 1: CAATCTGAATTCCGGTCTCCC
DNA 2: TGGTGGCTACGACGGGATT
B26: GUUAGCG (DNA:RNA)
RNA: B1 RNA with C26U, A27U, G28A, C29G, A31G
DNA 1: CAATCTGAATTCCGGTCTCCC
DNA 2: TGGTGGCTACGACGGGATT
B27: CCAGAGC (DNA:RNA)
RNA: B1 RNA with G25C, C29A, C30G, A31C
DNA 1: CAATCTGAATTCCGGTCTCCC
DNA 2: TGGTGGCTACGACGGGATT
B28: UUGGUAC (DNA:RNA)
RNA: B10 RNA with C27G, A28G, A29U, U30A
DNA 1: CAATCTGAATTCCGGTCTCCC
DNA 2: TGGTGGCTACGACGGGATT
B29: CGUGCCG (DNA:RNA)
RNA: B1 RNA with G25C, C26G, A27U, A31G
DNA 1: CAATCTGAATTCCGGTCTCCC
DNA 2: TGGTGGCTACGACGGGATT
B30: CCUGCUU (DNA:RNA)
RNA: B1 RNA with G25C, A27U, C30U, A31U
DNA 1: CAATCTGAATTCCGGTCTCCC
DNA 2: TGGTGGCTACGACGGGATT
B31: CGAAUGU (DNA:RNA)
RNA: B1 RNA with G25C, C26G, G28A, C29U, C30G, A31U
DNA 1: CAATCTGAATTCCGGTCTCCC
DNA 2: TGGTGGCTACGACGGGATT

Changes are numbered by the printed parent chain; changes in the protein carry UniProt numbers. The list shows a part of the results.

The target in the assay is T1, RBFOX1 RRM. Nature of the assay: EMSA; HiTS-Eq, 1 nM pool, 10 min; buffer printed only for the single-RNA assays: 10 mM Tris pH 7.5, 150 mM NaCl, 3.4 mM EDTA, 0.001% NP-40, 30 C. The note with it: tags: His6 N-terminal (pET28a); label: 5' 32P. The method in brief:
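Purified RbFox RRM, wild type or mutant, was incubated for 10 min in 50 µL with 1 nM of a 5′-radiolabelled RNA pool carrying 7 randomized nucleotides, whose flanks were annealed to DNA oligonucleotides, over a series of increasing protein concentrations. Unbound RNA was resolved on 8% native PAGE, cut out, reverse-transcribed, barcoded by PCR and sequenced on an Illumina HiSeq 2500. Relative association constants were derived from changes in read counts for each RNA species versus the control reaction and normalised to the cognate motif.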
A general note: Mobility shift assays separate free from complexed probe on a gel.
In the case of B1, the binding signal was 0.00765 KA relative to UGCAUGU.

B2: the binding signal was 0.00554 KA relative to UGCAUGU.

On to B3, for which the binding signal is 0.0149 KA relative to UGCAUGU.

In the case of B4, the binding signal was 0.00895 KA relative to UGCAUGU.

Turning to B5, the binding signal was 0.00332 KA relative to UGCAUGU.

Regarding B6, the binding signal is 0.00125 KA relative to UGCAUGU.

B7: the binding signal is 0.0238 KA relative to UGCAUGU.

With B8, the binding signal was 0.0154 KA relative to UGCAUGU.

On to B9, for which the binding signal is 0.0209 KA relative to UGCAUGU.

Consider B10, for which the binding signal was 0.00156 KA relative to UGCAUGU.

Consider B11, for which the binding signal was 0.00172 KA relative to UGCAUGU.

Take B12: the binding signal was 0.00395 KA relative to UGCAUGU.

For the molecule B13, the binding signal was 0.000557 KA relative to UGCAUGU.

Consider B14, for which the binding signal was 0.00788 KA relative to UGCAUGU.

Consider B15, for which the binding signal was 0.00671 KA relative to UGCAUGU.

For the molecule B16, the binding signal is 0.0185 KA relative to UGCAUGU.

For B17, the binding signal was 0.0038 KA relative to UGCAUGU.

B18: the binding signal is 0.00782 KA relative to UGCAUGU.

With B19, the binding signal is 0.0306 KA relative to UGCAUGU.

Consider B20, for which the binding signal is 0.0136 KA relative to UGCAUGU.

In the case of B21, the binding signal is 0.00125 KA relative to UGCAUGU.

As to B22, the binding signal was 0.00846 KA relative to UGCAUGU.

As for B23, the binding signal was 0.023 KA relative to UGCAUGU.

B24: the binding signal is 0.00872 KA relative to UGCAUGU.

Regarding B25, the binding signal is 0.0324 KA relative to UGCAUGU.

For the molecule B26, the binding signal was 0.0124 KA relative to UGCAUGU.

Turning to B27, the binding signal was 0.00442 KA relative to UGCAUGU.

B28: the binding signal was 0.0204 KA relative to UGCAUGU.

Take B29: the binding signal was 0.011 KA relative to UGCAUGU.

Consider B30, for which the binding signal is 0.0137 KA relative to UGCAUGU.

As to B31, the binding signal is 0.0168 KA relative to UGCAUGU.
